PubChem BioAssay AID360 (National Center for Advancing Translational Sciences (NCATS), 2006)
Hit rate of the full screen: of about 48,000 compounds, about 550 (1.1%) were called active. Another 4% or so got no clear call; they are omitted. No stated cut-off is given here; in the data, active means potency below about 15 µM; inconclusive means mostly about 16 µM to 33 µM; inactive means weaker than that. Some of the results follow.

Each compound was assayed against Lysosomal acid glucosylceramidase (Homo sapiens) (UniProt P04062) (assay: Glucocerebrosidase). Conditions: purified enzyme, resorufin glucoside fluorescence (screen aimed at inhibitors), 20 min.
Chain of UniProt P04062 (P04062 whole entry, looked up): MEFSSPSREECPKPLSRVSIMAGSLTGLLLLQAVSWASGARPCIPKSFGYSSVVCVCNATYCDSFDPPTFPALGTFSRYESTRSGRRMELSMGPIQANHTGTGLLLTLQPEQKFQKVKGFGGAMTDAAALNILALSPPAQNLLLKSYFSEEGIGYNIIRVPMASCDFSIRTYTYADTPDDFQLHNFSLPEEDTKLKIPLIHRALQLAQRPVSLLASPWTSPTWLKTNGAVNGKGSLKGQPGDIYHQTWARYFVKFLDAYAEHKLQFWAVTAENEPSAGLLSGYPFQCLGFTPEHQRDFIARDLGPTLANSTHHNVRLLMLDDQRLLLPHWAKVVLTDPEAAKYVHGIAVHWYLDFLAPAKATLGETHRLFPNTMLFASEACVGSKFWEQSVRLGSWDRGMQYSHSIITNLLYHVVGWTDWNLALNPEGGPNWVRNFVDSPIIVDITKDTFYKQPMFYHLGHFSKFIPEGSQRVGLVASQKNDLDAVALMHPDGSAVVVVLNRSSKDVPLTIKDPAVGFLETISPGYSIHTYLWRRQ
Procedure, shortened: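 Compounds titrated against 0.2 nM normal enzyme, 30 uM resorufin beta-D-glucopyranoside substrate, citrate/phosphate buffer with taurocholate and tween-20, pH 5.9. Reaction ran 20 min at room temperature; fluorescence (Ex 548/Em 600) gave AC50.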
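Further: the screen sought inhibitors.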
Potency means the concentration at half of the fitted maximal effect.

Potency, inactive:
COc1c(C)cccc1C(=O)Nc1cc(Cl)ccc1N1CCOCC1 > 76.9 µM
C[N+]1=C2CCCCCN2C(O)(c2ccccc2)C1 (centres undefined) > 76.9 µM
Cc1ccnc(N(C(=O)c2cccs2)C(=O)c2cccs2)c1 > 76.9 µM
COc1ccc(NC(=O)C2CCCN(c3c4c(nc5ncnn35)CCC4)C2)cc1OC (centres undefined) > 76.9 µM
CCCCn1c(=O)n(CC(O)c2ccccc2)c(=O)c2c1ncn2C1CCCC1 (centres undefined) > 76.9 µM
COc1ccc(Br)c(C(=O)Nn2c(C)nc3ccccc3c2=O)c1 > 76.9 µM
Cc1oc(C(C)(C)C)cc1C(=O)Nc1ccc2c(c1)OCCO2 > 76.9 µM
NS(=O)(=O)c1ccc(CCNC(=O)c2cncc(Br)c2)cc1 > 76.9 µM
Cc1ccc(SCC(=O)N(Cc2nc(-c3ccccc3)no2)C(C)C)cc1 > 76.9 µM
CC(=O)Nc1cccc(OC(=O)N2CCOCC2)c1 > 76.9 µM
O=C(CSc1ncn(-c2ccccc2)n1)Nc1ccc2c(c1)OCCO2 > 76.9 µM
CC(=O)N=c1sc2nc3ccccc3nc2n1N(C(C)=O)C(C)=O > 76.9 µM
O=C(Nc1ccccc1)N(O)c1ccc(Cl)cc1 > 76.9 µM
Cc1ccc(-c2noc(CN3CCN(Cc4ccccc4)CC3)n2)cc1 > 76.9 µM
CC(C)OC(=O)CCCCCN1C(=O)CSC1=S > 76.9 µM
COc1cc(OC)c(-c2nn3c(C4CCCCC4)nnc3s2)cc1OC > 76.9 µM
CC1CCC(C(=O)NC(C(=O)NCCN2CCC(C)CC2)C(C)C)CC1 (centres undefined) > 76.9 µM
Cc1c(C)n(C(=O)CSc2ncn[nH]2)c2ccccc12 > 76.9 µM
O=c1[nH]cnc2sc3c(c12)CCCC3 > 76.9 µM
COC(=O)c1ccccc1NC(=O)c1cc(-c2cccc(OC)c2)on1 > 76.9 µM
CCOC(=O)c1[nH]c2ccc(OC)cc2c1NC(C)=O > 76.9 µM
CCOc1cccc(N2C(=O)CC(N3CCC(C(N)=O)(N4CCCCC4)CC3)C2=O)c1 (centres undefined) > 76.9 µM
Cc1csc(SCC(=O)c2ccc(S(=O)(=O)N3CCOCC3)cc2)n1 > 76.9 µM
COc1ccc(-n2nnnc2S(=O)(=O)Cc2ccc(C(=O)O)cc2)cc1 > 76.9 µM
c1coc(CNc2ncnc3c2oc2ccccc23)c1 > 76.9 µM
N#CCSc1nc2scc(-c3cccs3)c2c(=O)n1CCc1ccccc1 > 76.9 µM
CCCCn1c(SCC(=O)OCC)nnc1-c1ccoc1C > 76.9 µM
CCc1nnc(NC(=O)COC(=O)CN2C(=O)c3ccccc3C2=O)s1 > 76.9 µM
CN(c1ccccc1C(=O)Nc1ccc(S(=O)(=O)N2CCCCC2)cc1)S(C)(=O)=O > 76.9 µM
CCn1c(NC2CCCCC2)nc2ccccc21 > 76.9 µM
CC(=O)c1ccc(N2CCN(C(=O)c3cc(-c4ccc5c(c4)OCO5)nc4ccccc34)CC2)cc1 > 76.9 µM
Cn1c(=O)n(CCN2CCOCC2)c(=O)c2c1nc1n2CCCN1c1ccccc1 > 76.9 µM
Cc1cc(NC(=O)CSc2nc3c(c(=O)n(C)c(=O)n3C)n2C(C)C)no1 > 76.9 µM
COc1cccc(C2=NOC(C(=O)Nc3ccc(C(C)=O)cc3)C2)c1 (centres undefined) > 76.9 µM
Cc1cc(NC(=O)COC(=O)C2CCN(C(=O)c3ccc(Cl)cc3)CC2)no1 > 76.9 µM
O=C(c1ccco1)N1CCN(S(=O)(=O)c2ccc(S(=O)(=O)NC3CCCCC3)cc2)CC1 > 76.9 µM
COc1ccccc1CNC(=O)CCn1c(=O)sc2ccccc21 > 76.9 µM
COc1ccc(-c2nn(CCC(=O)O)cc2CCC(=O)O)cc1 > 76.9 µM
CCc1cccc(NS(=O)(=O)c2c(C)n[nH]c2C)c1 > 76.9 µM
Cc1cc(C)n(C(=O)CCC(=O)NCc2ccccc2)n1 > 76.9 µM
O=C(Nc1nn[nH]n1)c1cccc(Oc2ccccc2)c1 > 76.9 µM
O=C(Nc1nccs1)C1C2/C=C\CCCCC21 (centres undefined) > 76.9 µM
O=C(CSc1nc(N2CCCCC2)nc(N2CCCCC2)n1)N1CCc2ccccc21 > 76.9 µM
COc1ccc(C(c2nnnn2C2CCCC2)N2CCC(C(N)=O)CC2)c(OC)c1 (centres undefined) > 76.9 µM
Cc1ccc(C)c(NS(=O)(=O)c2ccc(NC(=O)c3ccco3)cc2)c1 > 76.9 µM
O=C(Nc1ccc(N2CCCCC2)c(Cl)c1)c1ncn[nH]1 > 76.9 µM
COc1ccccc1C(=O)N1CCN(c2nc3cc(C)c(C)cc3cc2C#N)CC1 > 76.9 µM
COC(=O)C1=C(N)Oc2cc(C)n(Cc3cccnc3)c(=O)c2C1c1ccccc1OC (centres undefined) > 76.9 µM
COc1ccc2oc(=O)c(C(=O)N3CCN(c4ccccc4C)CC3)cc2c1 > 76.9 µM
Cc1ccc(N(C(=O)Cn2nnc3ccccc32)C(C(=O)NCc2ccco2)c2cccnc2)cc1 (centres undefined) > 76.9 µM
CN1CCN(Cc2c(C#N)c3ccccc3n2C)CC1 > 76.9 µM
CC(C)C(c1nnnn1Cc1ccc(F)cc1)N1CCN(C2CCCCC2)CC1 (centres undefined) > 76.9 µM
COc1ccc(C(=O)n2nc(-c3ccc(Cl)cc3)nc2N)cc1OC > 76.9 µM
Cc1nnc(SCC(=O)N2CCN(S(=O)(=O)c3ccc(Cl)cc3)CC2)n(N)c1=O > 76.9 µM
CC1CCCN(c2ccc(C(=O)NCC3CCCO3)cn2)C1 (centres undefined) > 76.9 µM
O=C(c1ccco1)N1CCN(S(=O)(=O)c2ccc(C3CCCCC3)cc2)CC1 > 76.9 µM
Cc1cc(NC(=O)COC(=O)c2ccc(F)c(S(=O)(=O)N3CCOCC3)c2)no1 > 76.9 µM
COc1cccc(C(=O)OCCN2C(=O)c3ccccc3C2=O)c1OC > 76.9 µM
CCNC(=O)NC(=O)COc1ccccc1C#N > 76.9 µM
COc1cc(C2C3CN(C)CC=C3C(C#N)=C(N)C2(C#N)C#N)ccc1OC(C)C (centres undefined) > 76.9 µM
O=c1c2ccccc2nnn1CSc1nnc(COc2ccc(Cl)cc2)n1Cc1ccco1 > 76.9 µM
O=C(CN1CCN(c2ncccn2)CC1)Nc1ccccc1-n1cccc1 > 76.9 µM
O=C(O)C1CCCCC1C(=O)N1CC=C(c2ccccc2)CC1 (centres undefined) > 76.9 µM
COc1ccc(C2CC(c3cccc(OC)c3OC)n3nnnc3N2)cc1 (centres undefined) > 76.9 µM
COc1ccc(C(O)C(CN2CCOCC2)c2ccccc2)cc1F (centres undefined) > 76.9 µM
Cc1c(C(=O)NCCC2=CCCCC2)oc2ccc(S(=O)(=O)N3CCC4(CC3)OCCO4)cc12 > 76.9 µM
CCOC(=O)c1[nH]c(C)c(C(=O)OCC(=O)N2CCCCC2C)c1C (centres undefined) > 76.9 µM
O=C(Nc1cccnc1)c1cc(-c2ccco2)on1 > 76.9 µM
O=S(=O)(NC1CCN(Cc2ccccc2)CC1)c1cccc2cccnc12 > 76.9 µM
Cn1c(SCC(=O)NCc2ccc3c(c2)OCO3)nnc1-c1cccs1 > 76.9 µM
Cc1cc(=O)oc2c1c(C)nn2-c1nn[nH]n1 > 76.9 µM
CCOc1ccc2c(c1)c1nnc(SCC(=O)N3CCCCC3C)nc1n2C (centres undefined) > 76.9 µM
CCCCc1cc2c(c(NC(=O)CC)n1)c(=O)oc1ccccc12 > 15.4 µM
COc1ccc(N2CCN(CCCNC(=O)CCCn3c(=O)[nH]c4ccsc4c3=O)CC2)cc1 > 76.9 µM
Cc1nc(-c2cccc(S(=O)(=O)N3CC(C)OC(C)C3)c2)cs1 (centres undefined) > 76.9 µM
Cn1c(SCc2cnc(-c3ccccc3)s2)nnc1C1COc2ccccc2O1 (centres undefined) > 76.9 µM
Cn1c(=O)[nH]c(=O)c2c1nc(NCCc1ccccc1)n2CC(O)COc1ccccc1 (centres undefined) > 76.9 µM
O=C(O)CCCC(=O)NCCc1ccncc1 > 76.9 µM
N=c1nc(N)nc2n1NC(c1ccc(F)cc1)=CS2 > 76.9 µM
COc1cc(C2C3=C(Nc4ncnn42)c2ccccc2CC3)cc(OC)c1OC (centres undefined) > 76.9 µM
CN1C(=O)c2cccc(N(C)C)c2C1=O > 76.9 µM
Cc1ccc(CCNC(=O)C2CCN(C(=O)N(C)C)CC2)cc1 > 76.9 µM
COc1ccc(OC)c(NC(=O)Cn2cc(C(=O)c3ccco3)c3ccccc32)c1 > 76.9 µM
CCC(Sc1nc2cc3c(cc2c(=O)n1Cc1ccco1)OCO3)C(=O)Nc1cccc(OC)c1 (centres undefined) > 76.9 µM
CCc1nccn1S(=O)(=O)c1ccc2ccc(C)cc2c1 > 76.9 µM
C=CCSc1nc2ccccc2[nH]1 > 76.9 µM
CC(=O)c1cccc(N2C(=NC(=O)C(C)C)SC3CS(=O)(=O)CC32)c1 (centres undefined) > 76.9 µM
COc1ccc(-c2noc(CN(C)S(=O)(=O)c3ccccc3)n2)cc1OC > 76.9 µM
Cc1ccc2c(CSc3nnc(C4CC4)n3N)cc(=O)oc2c1 > 76.9 µM
